According to the supplement of paper PMC11417369:
The list shows a part of the results.

test system: PF3D7_0420300 AP2 domain 1 (GST-tagged); assay: gcPBM binding intensity (ln(normalized median fluorescence intensity)); higher = stronger DNA binding
In short: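 Probes on an Agilent 4 × 180k array were primer-extended, double-stranded and 36 bp long, taken from intergenic genomic regions, with negative controls added. GST-tagged P. falciparum DNA-binding domains from E. coli, about 25 μg on average, were applied to the array for 1 h in 1× PBS containing 1% milk, 0.2 mg/ml BSA, 0.5% salmon testes DNA and 0.03% Triton X-100. Binding intensity, obtained after Alexa488 anti-GST antibody detection and a 488 nm scan, is the highest Masliner-normalised natural-log median intensity across replicate spots of either probe orientation.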

Sequence | gcPBM binding intensity (ln)
TAGTAGTTATCACTAACATGCAATAATATTATTTAA [TGCATGCA_site161] | 9.08
CGTATAAATATACGTGCATGTAACTTTTTCTATATT [TGCATGCA_site981] | 9.38
CTATTTATTTTTGATGCATGCCAAATATAGAAAAAA [TGCATGCA_site368] | 8.9
TGACTGTAGATATTTTGTACATAACCTAATATATAT [XGTACX_site970] | 9.27
TACAGTTCAATGAAGGTGCAATTAATATATAAAATA | 9.19
ATAATATAATACGAAGGTACACATTTTCTTAATATA [XGTACX_site7947] | 9.38
TTATGTACAATTTCTTCTTTCTTTTTTCCTAAAGAC [CACACA_negctrl_site1193] | 8.87
ATAACATATATATATACACACACATATATATATGAA [CACACA_site7983] | 9.79
TTTTTTTTTTTTTTTTGTACACATAATATGAATAAT [XGTACX_site2661] | 8.93
ATATATTTTTTGAATACACACATATTATAGGTAATA [CACACA_site6709] | 9.42
TATAATATAATATATGCACACAAATATGTATATATG [CACACA_site8664] | 9.32
AACTATATATAACTAGTGCAAAGACAATATTTTAAA | 9.3
AAAATTTAATATAATGCACACATAAAAAAAAAAAAT [CACACA_site8425] | 9.53
TTCTTTAAAATAAATTGTACTAACATATATATATAT [XGTACX_site6045] | 9.09
AAATATAATATATGCACACATACATACATATATATA [CACACA_site104] | 9.45
TTTTCCTTTTTGGAATGTACACATATATATTAAATG [XGTACX_site4700] | 9.02
AAGAATAATAACAAATGTACTTATATAAAGTATTAT [XGTACX_site2336] | 9.3
TAATTAAATATTTTCCTACAATTAATAAGAAAAGGA [XGTACX_negctrl_site565] | 8.93
TATTAAGAAGAAAATTCACACATTTGTACCTCTCTT [CACACA_site4822] | 9.13
CAGCTCTTAAAAATTACACACATATACGCATATATA [CACACA_site3267] | 9.54

Sequence | gcPBM binding intensity (ln)
GAAAATAGCTAAAATACACACAATTAAAAGTTATTA [CACACA_site7614] | 9.56
TTACAAAAATGTGGTTGTACACAAACAAAAAAAATA [XGTACX_site8506] | 9.4
TATAAATAGATATATACACACATGAAAATAAATAAA [CACACA_site7228] | 9.78
TTTTTTTTTTTTTTTGCACACTTGATTTGAGCTTAT [CACACA_site4042] | 8.93
TTTTTTTTTGTTTACACACCCAAATCACATACATAT [CACACA_site4052] | 9.5
AAAATAAAAATACACATTTTTTTTTTTTTTTTTTTT [TGCATGCA_negctrl_site515] | 9.32
TAAATAATTTATAAGTGTACTATTATTGCACGAATA [XGTACX_site7715] | 9.1
AAAAAAAACAGACACACACACATAAATATATATAAA [CACACA_site148] | 10
CATTAGGTCTTTTGTACATGCAAGTGTGTGCGTAAA [TGCATGCA_site255] | 9.36
ATGATTTTTTCTGTATGTACATAAAAATAAAATTCT [XGTACX_site5698] | 9
TTGTTTATTTTTTATTACTATAAAGATGTTATATAT [CACACA_negctrl_site1506] | 9.16
TATATAAATATATATGTACACACATATACATGTTGA [CACACA_site9022] | 9.47
ATAATATCTTTATGTGTGCACATATATATATATATA | 9.65
AAAAAAAAAAAAAAATGTACAAATAGTAGTTACAGA [XGTACX_site2531] | 9.39
AACATGTTAAAATAAACACACAGCTAAGGTTTTTTT [CACACA_site157] | 9.42
ATAATATATGTATATCCACACACATATATATATATA [CACACA_site8471] | 9.57
ATTTAAGATTTAATCACACACATATATATTATATAC [CACACA_site2907] | 9.49
GCAAATGTGAAAACGTGTACACATTTTATTTAATTT [XGTACX_site8000] | 9.19
TATTTGTAAATCGATACACACATATATATTAATATA [CACACA_site196] | 9.47
AAATGTAGATATTATCGTACACATATATTTATATAT [XGTACX_site6326] | 9.27

Sequence | gcPBM binding intensity (ln)
ACACATATGCATATATGTACATAATATATTAAACTT [XGTACX_site5975] | 9.38
TAAAAAATAAATATATGTACGCAATAAATGTGTTAA [XGTACX_site4043] | 9.28
AAAAAAAAAAGACACACACACACACTAATACATACA [CACACA_site6473] | 10.2
ATACCTATTTGATGAGTGCATTATCCAATATATGTA | 9.2
AAATATATATGTATATGTACTTATTTATTTAAAAGG [XGTACX_site4093] | 9.05
TTTATTATATATAAAAGTACACATTGTAAGGAAACA [XGTACX_site8560] | 9.37
AAAAGTGATGAGACAAGTACTAACATATTATTATTA [XGTACX_site1533] | 9.33
TTTTCTGTATAAACTTGTACATATATTTCCTTGTTT [XGTACX_site5745] | 9.44
ATGTTTTACAAAAACACACAAATGAATATAAACATA [CACACA_site6667] | 9.33
AAATAAAATATCAATTAAAACAGAATTGAATTTTTA [CACACA_negctrl_site181] | 9.02
ATATGTTCTACAAAAAAGATGTCGATTTATTTTCTT [CACACA_negctrl_site1179] | 9.12
AAAACAAAATAGGGAACACACACATGTCAATATATA [CACACA_site8834] | 10.1
TTTCAAACTGTTCTCACACACGAAATTAGAAATGAA [CACACA_site4509] | 9.29
TTTTTTTTTTTTTGGTTCACACTGAAAAGAGAGATA [GTGCAC_negctrl_site439] | 8.78
CAATCATGGTTTTACACACACATGCATGTGAAAATT [CACACA_site4870] | 9.67
TTTTGTTATTTTGAAGTGCACTTTCCACTTAATATA | 9.28
TCATGTTTTACAAAAACACACAAATGAATATAAACA [CACACA_site4775] | 9.26
TATATACATAGACACCCACACACAAAAAAAAAAAAA [CACACA_site8186] | 9.75
